# Laboratory results taken from PMC4336329 (PLoS ONE, 2015).
# About 14,000 (4.5%) of roughly 310,000 compounds showed an effect of 50% or more. The effect is printed as a negative number. This is one part of the list.
# Biological target: human ether-à-go-go-related gene (hERG) potassium channel (human, UniProt Q12809)
# Assay: primary screen, population patch clamp on CHO cells stably expressing hERG
# 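Note: peak tail current of the secondary pulse compared with the same well before compound.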
# Sequence of human ether-à-go-go-related gene (hERG) potassium channel (Q12809 whole entry, looked up): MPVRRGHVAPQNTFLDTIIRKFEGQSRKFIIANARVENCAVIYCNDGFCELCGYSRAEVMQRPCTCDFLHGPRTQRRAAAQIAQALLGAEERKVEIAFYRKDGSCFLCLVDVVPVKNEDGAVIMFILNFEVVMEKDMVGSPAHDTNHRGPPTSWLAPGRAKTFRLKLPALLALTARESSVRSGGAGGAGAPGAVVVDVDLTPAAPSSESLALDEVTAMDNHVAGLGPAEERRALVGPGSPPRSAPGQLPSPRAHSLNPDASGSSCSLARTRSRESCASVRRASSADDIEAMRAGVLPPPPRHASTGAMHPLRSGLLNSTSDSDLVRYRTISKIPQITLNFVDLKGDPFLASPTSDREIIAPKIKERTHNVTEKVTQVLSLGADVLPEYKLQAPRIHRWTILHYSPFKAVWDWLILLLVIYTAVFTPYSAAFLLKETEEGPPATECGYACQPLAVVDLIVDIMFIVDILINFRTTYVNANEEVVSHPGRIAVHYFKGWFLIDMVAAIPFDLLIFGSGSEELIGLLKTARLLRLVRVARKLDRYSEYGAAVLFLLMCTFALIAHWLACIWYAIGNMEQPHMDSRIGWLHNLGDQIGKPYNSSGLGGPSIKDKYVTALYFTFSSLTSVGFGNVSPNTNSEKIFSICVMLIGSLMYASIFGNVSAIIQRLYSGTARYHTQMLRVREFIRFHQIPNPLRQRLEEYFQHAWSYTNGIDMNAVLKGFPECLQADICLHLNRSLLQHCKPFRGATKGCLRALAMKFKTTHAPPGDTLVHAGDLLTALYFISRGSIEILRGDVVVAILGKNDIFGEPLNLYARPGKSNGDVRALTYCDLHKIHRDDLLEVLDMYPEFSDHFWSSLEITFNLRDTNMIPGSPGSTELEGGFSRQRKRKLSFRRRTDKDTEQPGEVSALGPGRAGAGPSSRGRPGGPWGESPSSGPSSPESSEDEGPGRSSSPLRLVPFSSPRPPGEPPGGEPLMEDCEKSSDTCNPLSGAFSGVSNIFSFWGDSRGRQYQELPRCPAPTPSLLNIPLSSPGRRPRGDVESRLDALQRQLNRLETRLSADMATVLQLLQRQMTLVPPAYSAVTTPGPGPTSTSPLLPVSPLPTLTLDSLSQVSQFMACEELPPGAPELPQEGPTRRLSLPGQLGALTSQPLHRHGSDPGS
row,Structure (SMILES),"hERG current change (%, negative = inhibition) at 10uM"
1,CC(=O)c1ccc(O)c(CSC2=NCCS2)c1,19.8%
2,O=C(CSc1ncn[nH]1)N1N=C2/C(=C/c3ccccc3)CCCC2C1c1ccccc1 (centres unmarked),8.08%
3,CCC(=O)NC(=S)NNC(=O)c1ccc(OC)cc1,10.2%
4,CCOC(=O)N1CCN(C(=O)c2cc3ccc(OC)cc3[nH]2)CC1,13.2%
5,O=C(/C=C/c1ccccc1)NC(=S)N1CCSCC1,6.97%
6,Cc1ccc(CSCC(=O)N(C)CC(=O)Nc2c(Cl)cccc2Cl)cc1,-9.07%
7,COc1cc(CN2CCNCC2)cc(OC)c1OC.Cl,5.64%
8,Cc1cc(=O)n(CC=C(Cl)Cl)c2ccccc12,-15%
9,Cc1c(C(=O)Oc2ccc(F)cc2)sc2ncn(Cc3cccc(F)c3)c(=O)c12,12.9%
10,Cn1cccc1C(=O)NC(=O)COC(=O)CNC(=O)c1ccc(Cl)cc1Cl,9.15%
11,C#CCOCCOCCOCCNc1nc(N2CCN(C(=O)[C@H](CCC(=O)O)n3cc(C(N)[C@H](C)CC)nn3)CC2)nc(N2CCN(C(=O)[C@H](Cc3cc4ccccc4[nH]3)n3cc(C(N)[C@H](C)CC)nn3)CC2)n1.Cl (some centres unmarked),8.92%
12,Cc1ccc(-c2cc(C)nc3ncnn23)cc1,11.2%
13,Cc1cccc(N2CCN(C(=O)c3cc4ccccc4oc3=O)CC2)c1C,-40.8%
14,COc1ccc(CCNC(=O)CS(=O)(=O)Cc2nc(-c3ccccc3Cl)oc2C)cc1OC,-3.23%
15,CC(=O)Nc1cc(-c2nn(C)c(=O)c3ccccc23)ccc1N1CCCCC1,24.8%
16,COc1cc(N=Nc2c(O)c3ccccc3[nH]c2=O)c(OC)cc1N=Nc1ccccc1,20.5%
17,Cc1ccc(CN2CCc3c(OCC(=O)Nc4cccc(C)c4C)cccc3C2=O)cc1,-4.51%
18,O=C(CN1CCOCC1)N/N=C/c1ccco1,17.1%
19,CC(Oc1cccc(Cl)c1)C(=O)Nc1nc(-c2ccccn2)cs1 (centres unmarked),4.19%

row,Structure (SMILES),"hERG current change (%, negative = inhibition) at 10uM"
1,CC1(C)CC2CC(C)(CN2CC(O)COc2ccccc2)C1.O=C(O)C(=O)O (centres unmarked),-41.5%
2,O=C(NNC(=O)c1cc(Cl)ccc1O)c1cccc(S(=O)(=O)N2CCOCC2)c1,17.5%
3,O=C(Nc1c2c(nn1-c1ccc([N+](=O)[O-])cc1)CS(=O)(=O)C2)c1ccccc1F,-5.64%
4,Cc1cc(=O)n(C)c(=O)n1CCCCCOc1cccc([N+](=O)[O-])c1,-57.9%
5,CCN1C(=S)SC(=O)C1=C1C=C(C)N(Cc2ccco2)C(C)=C1,-12.4%
6,CCc1nn(CC(=O)NCCCN2CCCC2=O)c(=O)c2cc3sccc3n12,-12.3%
7,CCCCOc1ccc(/C=C/C(=O)OCC(=O)N2CC(=O)Nc3ccccc32)cc1OCC,21.2%
8,COc1ccc(OC)c(CC(=O)Nc2cc(S(=O)(=O)N3CCCCC3)ccc2C)c1,-18.5%
9,C=CCNc1ccc(N2C(=O)CCCC2=O)cc1[N+](=O)[O-],13.7%
10,CCCCC(CC)CNC(=O)C1C2C=CC(C2)C1C(=O)O (centres unmarked),-4.63%
11,Cc1oc2ccc(OCc3ccccc3Cl)cc2c1C(=O)O,0.0277%
12,CC(C)(C)NC(=O)COC(=O)c1cc(S(=O)(=O)N2CCCCC2)ccc1N1CCOCC1,-6.23%
13,O=[N+]([O-])c1ccccc1OCCOCCOc1cccc2cccnc12,-28.4%
14,Nc1nccc(/C=C/c2c(F)cccc2Cl)n1,-2.42%
15,C/C(=N\Nc1ccc(Cl)cc1)c1c(O)cc(C)oc1=O,15.3%
16,Cc1nn(Cc2ccc(Cl)cc2)c(C)c1NC(=O)C(c1ccccc1)c1ccccc1,-44.5%
17,Cc1ccc(-n2c(N)c(C(=O)N3CCOCC3)sc2=S)cc1,-25%
18,CCn1c(O)c(/C=C2\C=Nc3ccccc32)sc1=Nc1ccccc1,14.5%
19,O=C(Nc1ccccc1)c1ccc(S(=O)(=O)N2CCCCC2)cc1,-35.3%

row,Structure (SMILES),"hERG current change (%, negative = inhibition) at 10uM"
1,C/C(=N\NC(=O)c1cccs1)c1ccc2ccccc2c1,16.6%
2,COc1ccccc1N1CCN(Cc2cc(Br)c(O)c3ncccc23)CC1,-8.81%
3,COc1ccc(OCCOC(=O)c2cccs2)cc1,-0.463%
4,COC(=O)c1ccc(COc2ccccc2/C=N/O)o1,2.96%
5,CC(=O)CSc1nnc(CN2C(=O)CSc3ccc(C(F)(F)F)cc32)n1C,-12.3%
6,Cc1ccc(NC(=O)c2ccoc2C)cc1C,-12.8%
7,CCOc1cc(S(=O)(=O)N(CC)CC)ccc1Br,-11.8%
8,CCOc1ccc(CN(CCO)CCO)cc1C(=O)OC,-7.24%
9,CCOc1ccc(OCc2ccc(C(=O)NC(C)C)o2)cc1,10.3%
10,COc1ccc(C(=O)Nc2nc(C)cs2)cc1S(=O)(=O)N1CCCC1,-13.5%
11,CCOC(=O)c1c(N2CCCCC2)c2ccccc2[nH]c1=O,11%
12,Cc1ccc(NC(=O)CN2CCc3cc4c(cc3C2C)OCCCO4)cc1C (centres unmarked),-3.16%
13,CCOc1ccc(N(CC(=O)NC2CCCCC2)C(=O)CCC(=O)Nc2cc(C)ccn2)cc1,8.21%
14,CCN1CCN(C(=O)c2ccc(Cl)c(S(=O)(=O)N(C)c3ccccc3)c2)CC1,-20.6%
15,CC(OC(=O)CCN=C1NS(=O)(=O)c2ccccc21)C(=O)Nc1ccc(F)cc1 (centres unmarked),-5.54%
16,O=C(Nc1cccc(NC(=O)c2ccccc2[N+](=O)[O-])c1)c1ccccc1Cl,7.19%
17,O=c1[nH]n(-c2ccc(Cl)cc2)c2ncccc12,6.15%
18,CN(C)S(=O)(=O)c1ccc(NC(=O)CN2CCCC2c2ccc3c(c2)OCCCO3)cc1 (centres unmarked),-9.91%
